{"source": "PubChem BioAssay AID314", "about": "(DTP/NCI, 2004)", "system": "DBA/2 mice, P1534 leukemia ip, survival T/C", "assay": "NCI In Vivo Anticancer Drug Screen. Data for tumor model P1534 Leukemia (intraperitoneal) in DBA/2 mice", "details": "endpoint: mean survival time; dose: 18.8 mg/kg/injection; schedule: Q01DX010 (ip); vehicle: saline; higher = longer survival", "experimental": "The antitumor activity of compounds was measured in mice bearing transplantable tumors. Survival or tumor size were measured and the results are expressed as the measurement made in the treated group (T) divided by the measurement made in the vehicle treated control group (C). The tumor model used in this assay is P1534 Leukemia (intraperitoneal) in DBA/2 mice", "note": "Inconclusive results and toxic doses are left out. A number of entries come with more than one value. The other results are left out here. The source may hold further records. The records of an entry repeat one measurement across runs, samples, wells, individuals or studies."}
{"smiles": "O=c1[nH]c(=O)n(C2CC(O)C(CO)O2)cc1F", "note": "(stereo unspecified)", "values": [{"measurement": "T/C", "result": "121 % of control and 165 % of control"}]}
